Read-outs that look alike come from different tables or passages of the source.
Key:
Male Swiss albino mice = conditions: for PMNx10^6/mouse (time 4h) / mono-mø x10^6/mouse (time 24h): 1 mg/kg i.v. 2 h after zymosan 1 mg/0.5 ml i.p.; for % reduction of PMN (time 4h) / % reduction of mono-mø (time 24h): 1 mg/kg i.v. 2 h after zymosan i.p., vs vehicle
[1] = system: Human airway smooth muscle cells; conditions: 10% FCS, 24 h

| Compound | PMNx10^6/mouse (time 4h) (Male Swiss albino mice) | mono-mø x10^6/mouse (time 24h) (Male Swiss albino mice) | % reduction of PMN (time 4h) (Male Swiss albino mice) [%] | % reduction of mono-mø (time 24h) (Male Swiss albino mice) [%] | 3H-thymidine (CPMx1000) ([1]; concentration −5 logM) | 3H-thymidine (CPMx1000) ([1]; concentration −7 logM) |
| --- | --- | --- | --- | --- | --- | --- |
| C[C@@H]1C[C@H]2[C@@H]3CCC4=CC(=O)C=C[C@]4(C)[C@@]3(F)[C@@H](O)C[C@]2(C)[C@@]1(O)C(=O)COC(=O)CCCO[N+](=O)[O-] [DXN, Dexamethasone 21-(4-nitrooxybutyrate)] | 4.5 ± 0.3 x10^6/mouse | 4.5 ± 0.6 x10^6/mouse | 55.4 | 48.8 | 10.8 | 12.6 |
| C[C@@H]1C[C@H]2[C@@H]3CCC4=CC(=O)C=C[C@]4(C)[C@@]3(F)[C@@H](O)C[C@]2(C)[C@@]1(O)C(=O)CO [Dexamethasone, reference compound] | 6.4 ± 0.4 x10^6/mouse | 6.3 ± 0.2 x10^6/mouse | 36.6 | 28.4 | 14.1 | 15.0 |
